From patent publication US12286632B2, “Rationally-designed synthetic peptide shuttle agents for delivering polypeptide cargos from an extracellular space to the cytosol and/or nucleus of a target eukaryotic cell, uses thereof, methods and kits relating to same” (Feldan Bio Inc., priority 2016, dated 2025)
Like-named read-outs stand apart in the source and are kept apart here. Part of at least one peptide drawing is inferred or uncertain, most often the ends. Some entries repeat one wording, which the source may state once for all of them. Ends that are not written are not given here.

Experiments:
[1] = test system: HeLa cells; format: cell-based; conditions: exposure 1 min; for Mean Factor: relative to no peptide
Source text: Calcein is a membrane-impermeable fluorescent molecule that is readily internalized by cells when administered to the extracellular medium. Its fluorescence is […] and calcein self-quenches at higher concentrations. Once internalized, calcein becomes sequestered at high concentrations in cell endosomes and can be visualized by fluorescence microscopy as a punctate pattern. Following endosomal leakage, calcein is released to the cell cytoplasm and this release can be visualized by fluorescence microscopy as a diffuse pattern.
The cells were allowed to attach by incubating overnight in appropriate growth media, as described in Example 1. The next day, the media in wells was removed and replaced with 50 μL of fresh media without serum containing 62.5 μg/mL (100 μM) of calcein, except for HEK293A (250 μg/mL, 400 μM). At the same time, the shuttle agent(s) to be tested was added at a predetermined concentration. The plate was incubated at 37° C. for 30 minutes. The cells were washed with 1× PBS (37° C.) and fresh media containing 5-10% serum was added. The plate was incubated at 37° C. for 2.5 hours. The cells were washed with 1× PBS and detached using trypsinization.
Untreated calcein-loaded cells were used as a control to distinguish cells having a baseline of fluorescence due to endosomally-trapped calcein from cells having increased fluorescence due to release of calcein from endosomes. Fluorescence signal means (“mean counts”) were analyzed for endosomal escape quantification. In some cases, the “Mean Factor” was calculated, which corresponds to the fold-increase of the mean counts relative to control (untreated calcein-loaded cells). […] The cellular mortality was monitored with the percentage of cells in the total events scanned. When it became lower than the control, it was considered that the number of cellular debris was increasing due to toxicity and the assay was discarded.

[2] = test system: HPRT genomic DNA sequence; experiment: T7E1 DNA cleavage assay after CRISPR/Cas9-NLS delivery (HeLa, Jurkat, NK, NCI-H196, HCC-78, REC-1 cells); format: cell-based, Human
[3] = test system: HPRT genomic cut site; experiment: Homologous-directed recombination of short or long DNA template at the HPRT cut site (PCR amplification), HeLa cells; format: cell-based, Human; conditions: FSD5 15 μM, HeLa cells 48 h
[4] = test system: HeLa cells; experiment: Transduction of fluorescently labeled antibodies (Alexa Fluor 488 / 594 IgG), fluorescence microscopy; format: cell-based, Human; conditions: FSD5 8 μM for 1 min
[5] = test system: HCC-78 cells; conditions: GFP-NLS 10 μM
[6] = test system: NCI-H196 cells; conditions: GFP-NLS 10 μM
[7] = test system: HeLa cells; experiment: Plasmid DNA (pEGFP-C1) transfection by peptides (% cells with GFP signal, cell viability); conditions: DNA transfection in HeLa cells using peptides
[8] = test system: HeLa cells; experiment: GFP-NLS protein transduction assay (flow cytometry: Pos cells %, viability %, relative fluorescence intensity; microscopy)

Sequence: HHHHHHLLKLWSRLLKLWTQGRRLKAKRAKAHHHHHH [FSD5]
- Mean Counts (±St. Dev.; n = 3) ([1]; peptide 2.5 μM): 12.41 ± 0.92
- Mean Factor ([1]; peptide 2.5 μM): 1.5
- Mean Counts (±St. Dev.; n = 3) ([1]; peptide 5 μM): 16.27 ± 1.27
- Mean Factor ([1]; peptide 5 μM): 3.0
- Mean Counts (±St. Dev.; n = 3) ([1]; peptide 7.5 μM): 56.41 ± 5.33
- Mean Factor ([1]; peptide 7.5 μM): 11.3
- Mean Counts (±St. Dev.; n = 3) ([1]; peptide 10 μM): 76.31 ± 5.18
- Mean Factor ([1]; peptide 10 μM): 15.4
- transduction of functional CRISPR/Cas9 complex with or without DNA template (HPRT cleavage) ([2]; FSD5 15 μM, HeLa cells 48 h in media containing serum, 0 or 500 ng template): can transduce a functional CRISPR/Cas9 complex in the presence or absence of a long template DNA
- delivery of CRISPR/Cas9-NLS complex, cleavage of genomic HPRT (in words) ([2]; different concentrations and exposure times, HeLa, NK, NIC-196H, HCC-78, REC-1 cells): successful delivery of the CRISPR genome-editing complexes to the nucleus
- genomic insertion of short DNA template (72 bp) ([3]; 500 ng template): resulting in homologous-directed recombination
- genomic insertion of long DNA template (1631 bp) ([3]; 500 or 1000 ng template): resulting in homologous-directed recombination
- transduction of fluorescently labelled antibodies (microscopy) [4]: cytoplasmic transduction
- Mean % cells with GFP signal (±St. Dev.; n = 3) ([5]; Table E2, peptide 5 μM, 2 min): 34.1 ± 3.57%
- Mean % cells with GFP signal (±St. Dev.; n = 3) ([5]; Table E2, peptide 8 μM, 1 min): 69.3 ± 5.27%
- Mean % cells with GFP signal (±St. Dev.; n = 3) ([5]; Table E2, peptide 10 μM, 1 min): 41.9 ± 3.61%
- Mean % cells with GFP signal (±St. Dev.; n = 3) ([6]; Table E3, peptide 5 μM, 2 min): 7.3 ± 0.82%
- Mean % cells with GFP signal (±St. Dev.; n = 3) ([6]; Table E3, peptide 8 μM, 1 min): 9.1 ± 0.99%
- Mean % cells with GFP signal (±St. Dev.; n = 3) ([6]; Table E3, peptide 10 μM, 1 min): 16 ± 1.27%
- Mean % cells with GFP signal (±St. Dev.; n = 3) [7]: 0.1 ± 0.01%
- Mean % cells with GFP signal (±St. Dev.; n = 3) ([8]; Table B2, HeLa cells, GFP-NLS cargo): 70.5 ± 6.44%
- Mean % cells with GFP signal (±St. Dev.; n = 3) ([8]; Table E1, HeLa, peptide 5 μM, GFP-NLS 10 μM, 2 min): 63.1 ± 4.19%
- Mean % cells with GFP signal (±St. Dev.; n = 3) ([8]; Table E1, HeLa, peptide 8 μM, GFP-NLS 10 μM, 1 min): 68.5 ± 5.27%
- Mean % cells with GFP signal (±St. Dev.; n = 3) ([8]; Table E1, HeLa, peptide 10 μM, GFP-NLS 10 μM, 1 min): 70.5 ± 6.44%
- GFP-NLS transduction efficiency ([8]; peptide 10 μM, GFP-NLS 10 μM, 1 min): 70.5%
